Experimental data as given in PubChem BioAssay AID1159614 (National Center for Advancing Translational Sciences (NCATS), 2016).
Screen size: about 45,000 compounds; about 65 (0.1%) were called active. The call rests on the fitted dose curve; in most records, active means well fitted activation curve with a large enough effect; inconclusive means small, poorly fitted or top-dose-only effect; inactive means no such curve, though single readings can be large or run the other way. The list shows a part of the results.

molecular target: Galactocerebrosidase (Homo sapiens) (UniProt P54803); assay: A Novel Cell-Based Assay to Identify Small Molecules for B -Galactocerebrosidase; details: 145M-Twi-hGALC-G270D cells (Twitcher mouse brain line with human GALC G270D), HMU-beta-Gal fluorescence, 48 h; series mostly up to 57.5 µM; activation: at the top concentration; further: 0% is about no effect; nearly all actives have a fitted effect of over 65% in size
Procedure, shortened: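 Mutant human GALC (G270D), stably expressed in a Twitcher mouse brain cell line lacking endogenous GALC, is measured in live-treated cells via 6-hexadecanoylamino-4-methylumbelliferyl-β-galactoside hydrolysis (0.1 mM final, pH 5.2) with fluorescent detection.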

UniProt P54803, sequence (P54803 whole entry, looked up): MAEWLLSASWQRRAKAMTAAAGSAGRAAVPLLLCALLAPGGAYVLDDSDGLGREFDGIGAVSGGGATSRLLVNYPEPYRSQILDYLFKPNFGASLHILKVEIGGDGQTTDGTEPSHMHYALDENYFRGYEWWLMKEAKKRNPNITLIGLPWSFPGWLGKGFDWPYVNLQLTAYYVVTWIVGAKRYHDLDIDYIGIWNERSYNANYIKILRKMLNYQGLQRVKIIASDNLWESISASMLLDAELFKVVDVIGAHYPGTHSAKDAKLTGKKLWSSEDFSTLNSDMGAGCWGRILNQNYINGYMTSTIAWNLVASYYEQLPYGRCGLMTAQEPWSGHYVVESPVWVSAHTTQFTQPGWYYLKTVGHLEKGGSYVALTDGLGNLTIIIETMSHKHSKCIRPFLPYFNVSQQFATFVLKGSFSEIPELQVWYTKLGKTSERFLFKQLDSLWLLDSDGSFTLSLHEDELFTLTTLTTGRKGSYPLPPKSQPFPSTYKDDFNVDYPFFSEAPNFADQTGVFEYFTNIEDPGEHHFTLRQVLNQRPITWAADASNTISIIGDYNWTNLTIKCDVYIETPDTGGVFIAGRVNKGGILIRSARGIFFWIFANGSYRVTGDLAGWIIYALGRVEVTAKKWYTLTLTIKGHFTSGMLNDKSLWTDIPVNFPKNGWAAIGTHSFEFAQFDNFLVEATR

activation, inactive:
Cc1ccccc1C(=O)Nc1ccc(NC(=O)c2cccs2)cc1 -12.6%
CCn1c2ccccc2c2cc(NC(=O)COc3cc(C)c(Cl)c(C)c3)ccc21 -8.42%
COc1ccc2oc(=O)c(C(=O)NCCc3c(C)[nH]c4c(C)cccc34)cc2c1 -4.63%
CCOc1cc2[nH]c(=O)n(CCC(=O)N3CCN(c4cccc(Cl)c4)CC3)c(=O)c2cc1OCC -17%
COC(=O)c1cc(NC(=O)CCS(=O)(=O)c2cc(Br)cc3c2N(C(=O)C2CC2)CC3)cc(C(=O)OC)c1 -9.56%
CC(=O)N1CCCc2cc(S(=O)(=O)N3CCC(C(=O)NCc4ccc(F)cc4)CC3)ccc21 -15.3%
CC1(C)O[C@@H]2C[C@H]3[C@@H]4CCC5=CC(=O)C=C[C@]5(C)[C@@]4(F)[C@@H](O)C[C@]3(C)[C@]2(C(=O)CO)O1 -7.85%
COc1ccc(C(=O)NCC(c2ccco2)S(=O)(=O)c2ccccc2)cc1 (stereo unspecified) -9.15%
CCOC(=O)c1c(C)oc2nc(C)nc(N3CCN(c4ccc(C)cc4C)CC3)c12 -12.9%
Cc1nc(-c2ccc(F)cc2)sc1CCNC(=O)c1ccccc1 -6.18%
Cc1cccc(NC(=O)C2CCC(CNS(=O)(=O)c3ccc4c(c3)CCCC(=O)N4)CC2)c1C (stereo unspecified) -15%
CCN1CCOC(=O)C1CC(=O)Nc1ccccc1C(F)(F)F (stereo unspecified) 18.5%
CCCN(C(=O)C1CCN(S(=O)(=O)c2c(C)noc2/C=C/c2ccc(C)cc2)CC1)c1ccccc1F 1.89%
CCCN(Cc1cc2cc(C)ccc2[nH]c1=O)C(=O)c1cccc(Cl)c1 -12.3%
COC(=O)c1cc(C)nc2c1c(=O)nc(SCc1cc(C)ccc1C)n2C1CC1 -13.6%
COc1cc(OC)c(NC(=O)COc2ccccc2-c2nnc(-c3ccccc3)o2)cc1Cl 16.6%
CC(=O)c1ccc(NC(=O)c2cccc(NC(=O)N3CCSc4ncccc43)c2)cc1 -5.43%
CCOCCCNC(=O)c1c(NC(=O)Cc2coc3c(C)c(C)ccc23)sc2c1CCC2 -10.9%
Cc1cc(C)cc(N(C)S(=O)(=O)c2nnc(NC(=O)COc3ccc(C)c(C)c3)s2)c1 -8.78%
CCc1ccccc1Nc1nn2c(=O)c3ccc(C(=O)NCCc4ccccc4)cc3nc2s1 -22.6%
Cc1c(Cl)cccc1NC(=O)CN1C(=O)c2ccccc2Sc2ncccc21 -8.19%
Cc1cccc(C(=O)NC2(C(F)(F)F)N=C(c3ccccc3)N(Cc3ccccc3)C2=O)c1 (stereo unspecified) -7.03%
CCCCCCCCCCCCCCCCCCO -16.9%
COc1ccc(-n2c(SCc3nc(-c4ccc(C)cc4)no3)nnc2-c2ccncc2)cc1 -14.8%
CCOc1ccc2c(c1)c(=O)c(S(=O)(=O)c1ccc(C)cc1)cn2CC(=O)Nc1ccc(C)cc1 -5.71%
COCCCN1CCc2nc(SCC(=O)Nc3ccc(C)c(Cl)c3)[nH]c(=O)c2C1 -12%
CC(=O)N1CCc2c(sc3c2c(=O)n(-c2ccccc2Cl)c(=O)n3C)C1 -13.7%
Cc1ccc(-c2c(CN3CCN(c4cc(Cl)ccc4C)CC3)csc2C)cc1 -7.05%
O=C(CSc1nc2ccccc2n1CC(=O)Nc1ccc(F)cc1F)Nc1ccc(F)cc1 -12.2%
CCn1cc(C(=O)N2CCN(c3ccccc3)CC2)c(=O)c2cc(S(=O)(=O)N(C)C3CCCCC3)ccc21 -9.94%
CC(=O)CSc1nc(-c2ccccc2)[nH]c1S(=O)(=O)c1ccc(C)cc1 -5.78%
CCOc1ccc(Sc2cc(C(=O)NCc3ccc(F)cc3)c3ccccc3n2)cc1 -3.09%
Cc1ccc2c(CNCc3cccs3)c(C(=O)O)n(Cc3ccc(F)cc3)c2c1 -18.6%
Cc1ccc2c(=O)cc(C(=O)Nc3sc4c(c3C(=O)NCc3ccco3)CCCC4)oc2c1C -11.9%
CCc1ccc(CNC(=O)c2nn(-c3ccc(C)c(C)c3)nc2CO)cc1 26.9%
CCC(C)NC(=O)Cn1ncc2c(C)n(Cc3ccc(F)cc3)c(C)c2c1=O (stereo unspecified) -7.31%
Cc1cc(=O)[nH]c2nnc(SCC(=O)Nc3cc(C(F)(F)F)ccc3Cl)n12 -8.04%
COC(=O)c1ccc(Cn2c(=O)cc(C)c3c(C)nn(C)c32)cc1 -0.623%
O=C(CN1C(=O)CCSc2ccc(S(=O)(=O)N3CCCC3)cc21)Nc1cccc(Cl)c1 -14.3%
Cc1cnc(NC(=O)C2=C(O)c3ccccc3S(=O)(=O)N2C)s1 -10.1%
CCOc1ccc(NC(=O)Nc2c(C)n(C)n(-c3ccccc3)c2=O)cc1 -9.15%
Cn1ncc2c(NCc3cccc(Cl)c3)ncnc21 -7.92%
COc1cc(Cl)c(C)cc1NC(=O)CSc1cc(=O)n(C)c2cc(Cl)ccc12 -25.5%
CCN(CC)S(=O)(=O)c1ccc2c(c1)N(CC(=O)NCc1ccccc1)C(=O)CS2 -1.74%
CN(C)c1ccc(C(CNC(=O)COc2ccccc2)N2CCOCC2)cc1 (stereo unspecified) -17.8%
NC(=O)CSc1ncc2c(n1)-c1ccccc1N(Cc1ccccc1)S2(=O)=O -9.19%
COc1ccc(NC(=O)c2cccc(N3CCCS3(=O)=O)c2)cc1 0.647%
Cc1c(Cl)cccc1NC(=O)N1CCN(Cc2cc(=O)n3nc(-c4ccccc4F)sc3n2)CC1 -8.58%
Cc1nn(C)c2c1c(-c1ccccc1)cc(=O)n2Cc1ccccc1F -11.7%
Cc1ccc(-c2noc(CCC(=O)Nc3ccc(F)cc3Cl)n2)cc1 -30.7%
COc1cccc(CNC(=O)Cn2c(=O)c3cccn3c3ccc(F)cc32)c1OC 3.67%
Cc1ccccc1CNC(=O)C(=O)NCC(c1ccco1)S(=O)(=O)c1ccc(F)cc1 (stereo unspecified) -5.39%
COc1ccc(NS(=O)(=O)c2ccc3c(c2)CCN3C(=O)C2CC2)cc1OC -22.3%
Cc1cc(C)c2c(=O)cc(C(=O)NCCc3ccc(S(N)(=O)=O)cc3)oc2c1 -15.6%
COC(=O)c1sccc1S(=O)(=O)N(CC(=O)Nc1ccc(C)cc1)c1ccccc1 -9.16%
COc1cccc2cc(-c3nnc(Nc4ccccc4C)s3)c(=O)oc12 -11%
COc1ccccc1N1CCN(C(=O)CCn2cnc3onc(-c4ccc(F)cc4)c3c2=O)CC1 -19.1%
Cc1cccc(NC(=O)CSc2nnc(-c3cccs3)o2)c1 1.89%
Cc1cccc(NC(=O)C(c2ccccc2)N2Cc3ccccc3C2=O)c1C (stereo unspecified) -4.25%
Cc1noc2ncnc(Nc3ccc(F)cc3)c12 -12.2%
Cn1ncc(C(=O)N2CCN(c3ccccc3)CC2)c1C1CCN(C(=O)OC(C)(C)C)CC1 1.15%
O=C(O)CCCc1ccccc1 -15.7%
CCOc1ccc(-c2cc3nc(C4CCN(C(=O)OC(C)(C)C)CC4)c(C(=O)Nc4ccc(C(=O)OC)cc4)cn3n2)cc1 -5.96%
Cc1ccc(CCNC(=O)NCc2noc3ccc(C)cc23)cc1 -12.2%
Cc1cc(F)ccc1NC(=O)C1CCCN(c2nnc(-n3c(C)ccc3C)s2)C1 (stereo unspecified) -11.1%
COc1ccc(NC(=O)Cn2c(=O)nc(-c3ccccc3)c3ccccc32)cc1OC -3.27%
Cc1cc(C)cc(N2C(=O)CS(=O)(=O)C23C(=O)N(Cc2ccc(F)cc2)c2ccc(C)cc23)c1 (stereo unspecified) -27.9%
CSc1ccc(CCNC(=O)C(C)n2nc(C)c3c(C)n(-c4ccccc4)nc3c2=O)cc1 (stereo unspecified) -16%
Cc1cc(C)n2nc(CNC(=O)c3cccc(Cl)c3)nc2n1 -18.9%
Cc1ccc(NC(=O)COc2ccc3oc4c(c3c2)CCCC4)c(C)c1 -14.2%
CN(C)c1ccc(-c2nc(-c3ccccn3)no2)cc1[N+](=O)[O-] -44%
Cc1ccc(CCNC(=O)Cn2nc(C)c3c(C)n(-c4ccc(C)cc4)nc3c2=O)cc1 3.39%
O=C(NCc1ccccc1Cl)c1ccc(CSCc2ccccc2Cl)o1 -10.4%
COc1ccc(OC)c(NC(=O)CSc2nnc3ccc4ccccc4n23)c1 -15%
Cc1ccc(CSc2nnc(CCNC(=O)OC(C)(C)C)o2)cc1 -1.55%
Cc1ccc(-n2ncc(C(=O)NCc3cccs3)c2C2CCN(C(=O)OC(C)(C)C)CC2)c(C)c1 -17.2%
COc1ccc(NC(=O)C2=C(C)Nc3nc(SCc4ccccc4C)nn3C2c2cc(OC)c(O)c(OC)c2)cc1 (stereo unspecified) -9.91%
CCC(Sc1nc2cc(OC)c(OC)cc2c2nc(-c3ccccc3)nn12)C(=O)Nc1cccc(C)c1 (stereo unspecified) -19.1%
CN(Cc1ccccc1)C(=O)Nc1ccc2c(c1)N(C)C(=O)c1ccccc1S2 -19.3%
COc1ccccc1OC(C)C(=O)Nc1ccc(-c2nc3ccccc3s2)cc1 (stereo unspecified) 4.3%
COc1ccc(-c2noc(CC(=O)Nc3ccc(F)cc3F)n2)cc1 -13.5%
Cc1ccc(-c2nnc(Nc3cccc(O)c3)c3ccccc23)cc1S(=O)(=O)N1CCOCC1 -19.7%
CCc1ccc(NC(=O)CCn2nc(-c3ccccc3OC)c3c(C)cc(C)nc32)cc1 -6.19%
COc1ccc(NC(=O)CCn2c(=O)c3cccn3c3cccnc32)c(OC)c1 0.697%
CCC(C(=O)NCc1ccccc1)n1nc(C)c2sc3ccccc3c2c1=O (stereo unspecified) -7.45%
CC(C)Nc1ccc(-c2nc(-c3ccco3)no2)cc1[N+](=O)[O-] -7.17%
Cc1ccc(C2c3[nH]c4ccccc4c3CCN2C(=O)c2cccc(C)c2)cc1 (stereo unspecified) -1.24%
CCC(C)NC(=O)c1ccccc1NC(=O)CN1C(=O)c2cccc3cccc1c23 (stereo unspecified) 0.512%
CC(C)CCOC(=O)c1ccc(N(C)C)cc1 -21.6%
Cc1ccc2nc(N3CCC(C(=O)N4CCN(c5cccc(Cl)c5)CC4)CC3)[nH]c2c1 -5.53%
CCOCCCNC(=O)C(c1ccc(C)cc1)N(Cc1ccc2c(c1)OCO2)C(=O)c1ccc(NC(C)=O)cc1 (stereo unspecified) 0.845%
COc1ccc(-c2cc(C(=O)OC(C)C(=O)c3ccccc3)c3cccc(Cl)c3n2)cc1 (stereo unspecified) -15.8%
c1ccc(Nc2c(-c3c[nH]c4ccccc34)nc3ccccn23)cc1 -4.7%
Cc1cccc(NC(=O)c2nnn(CC(=O)Nc3ccc(C(C)C)cc3)c2N)c1C -16.1%
COc1cc2cc(CNc3ccc(C)cc3)c(=O)n(CC(=O)Nc3ccc(F)cc3F)c2cc1OC -33.4%
COc1cc(C(=O)NCC(c2cccs2)S(=O)(=O)c2ccc(F)cc2)cc(OC)c1OC (stereo unspecified) 6.29%
